# Laboratory results published in article PMC10294536.
# Protein sequences, listed by entry. Tags and fused reporters are not part of them. Lines headed by an entry give the natural chain unless they say otherwise; changes in a name come on top.
# UniProt O14744: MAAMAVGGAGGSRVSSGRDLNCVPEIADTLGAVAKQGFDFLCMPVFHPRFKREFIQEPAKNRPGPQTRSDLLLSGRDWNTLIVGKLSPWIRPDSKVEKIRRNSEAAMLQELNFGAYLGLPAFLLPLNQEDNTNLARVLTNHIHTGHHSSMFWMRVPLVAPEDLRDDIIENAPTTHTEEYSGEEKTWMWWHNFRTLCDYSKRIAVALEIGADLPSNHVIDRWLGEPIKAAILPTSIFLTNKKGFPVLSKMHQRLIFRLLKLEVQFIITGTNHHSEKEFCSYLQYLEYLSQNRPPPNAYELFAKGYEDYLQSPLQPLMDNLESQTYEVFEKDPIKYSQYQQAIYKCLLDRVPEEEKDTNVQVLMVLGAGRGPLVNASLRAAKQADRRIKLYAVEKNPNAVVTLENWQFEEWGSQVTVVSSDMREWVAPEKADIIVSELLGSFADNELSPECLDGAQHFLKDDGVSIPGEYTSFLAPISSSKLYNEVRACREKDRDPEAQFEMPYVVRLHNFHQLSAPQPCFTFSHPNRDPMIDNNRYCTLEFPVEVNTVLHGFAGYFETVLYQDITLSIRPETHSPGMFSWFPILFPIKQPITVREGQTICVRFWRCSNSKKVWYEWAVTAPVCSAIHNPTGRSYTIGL
# UniProt Q15643: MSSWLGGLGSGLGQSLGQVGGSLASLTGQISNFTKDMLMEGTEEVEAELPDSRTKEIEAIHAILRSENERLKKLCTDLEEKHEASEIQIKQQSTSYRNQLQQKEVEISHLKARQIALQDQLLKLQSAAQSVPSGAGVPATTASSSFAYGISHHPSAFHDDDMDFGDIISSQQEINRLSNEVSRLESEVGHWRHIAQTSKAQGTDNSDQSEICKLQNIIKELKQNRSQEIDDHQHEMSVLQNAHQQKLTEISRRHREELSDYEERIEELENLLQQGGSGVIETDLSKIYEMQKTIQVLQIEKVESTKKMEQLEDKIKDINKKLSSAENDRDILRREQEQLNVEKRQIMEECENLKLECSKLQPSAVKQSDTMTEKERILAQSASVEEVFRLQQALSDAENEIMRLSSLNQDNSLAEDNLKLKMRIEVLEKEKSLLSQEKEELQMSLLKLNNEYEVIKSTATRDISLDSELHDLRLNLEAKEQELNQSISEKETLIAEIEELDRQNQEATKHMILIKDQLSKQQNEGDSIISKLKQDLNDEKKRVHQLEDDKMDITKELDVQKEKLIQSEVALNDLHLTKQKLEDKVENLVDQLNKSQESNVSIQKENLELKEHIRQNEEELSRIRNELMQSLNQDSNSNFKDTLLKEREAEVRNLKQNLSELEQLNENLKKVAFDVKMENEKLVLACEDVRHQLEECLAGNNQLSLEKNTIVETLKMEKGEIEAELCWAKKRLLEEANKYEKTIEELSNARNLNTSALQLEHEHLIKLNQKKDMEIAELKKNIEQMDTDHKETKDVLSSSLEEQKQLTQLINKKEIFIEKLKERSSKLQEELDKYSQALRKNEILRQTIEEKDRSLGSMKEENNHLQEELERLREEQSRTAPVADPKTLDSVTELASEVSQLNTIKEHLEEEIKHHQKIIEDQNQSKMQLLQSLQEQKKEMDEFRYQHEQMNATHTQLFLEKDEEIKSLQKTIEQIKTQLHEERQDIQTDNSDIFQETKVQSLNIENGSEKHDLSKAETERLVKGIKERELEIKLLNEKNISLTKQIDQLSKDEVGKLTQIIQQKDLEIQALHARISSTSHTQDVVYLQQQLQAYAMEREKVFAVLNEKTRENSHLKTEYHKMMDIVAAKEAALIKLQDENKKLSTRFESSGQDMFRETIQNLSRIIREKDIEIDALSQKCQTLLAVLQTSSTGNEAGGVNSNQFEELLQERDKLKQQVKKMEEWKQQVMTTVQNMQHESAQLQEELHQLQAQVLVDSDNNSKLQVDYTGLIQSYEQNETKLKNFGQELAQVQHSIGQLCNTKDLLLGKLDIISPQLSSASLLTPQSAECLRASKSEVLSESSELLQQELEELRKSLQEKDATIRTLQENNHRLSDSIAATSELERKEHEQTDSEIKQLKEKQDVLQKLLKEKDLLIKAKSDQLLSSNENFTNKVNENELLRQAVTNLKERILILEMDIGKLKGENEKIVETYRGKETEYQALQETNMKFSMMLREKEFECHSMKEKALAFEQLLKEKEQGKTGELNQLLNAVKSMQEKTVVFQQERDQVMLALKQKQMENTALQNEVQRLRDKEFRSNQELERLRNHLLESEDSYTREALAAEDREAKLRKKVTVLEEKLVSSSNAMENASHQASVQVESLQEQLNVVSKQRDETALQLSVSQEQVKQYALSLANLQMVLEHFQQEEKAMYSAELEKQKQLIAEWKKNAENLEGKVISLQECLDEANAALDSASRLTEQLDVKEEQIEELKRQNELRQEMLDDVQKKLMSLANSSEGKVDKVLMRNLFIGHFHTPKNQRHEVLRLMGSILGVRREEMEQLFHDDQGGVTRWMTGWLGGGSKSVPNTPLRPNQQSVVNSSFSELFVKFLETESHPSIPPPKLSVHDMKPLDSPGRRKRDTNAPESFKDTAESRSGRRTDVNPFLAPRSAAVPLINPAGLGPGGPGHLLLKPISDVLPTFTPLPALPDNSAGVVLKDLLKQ
# UniProt P84077: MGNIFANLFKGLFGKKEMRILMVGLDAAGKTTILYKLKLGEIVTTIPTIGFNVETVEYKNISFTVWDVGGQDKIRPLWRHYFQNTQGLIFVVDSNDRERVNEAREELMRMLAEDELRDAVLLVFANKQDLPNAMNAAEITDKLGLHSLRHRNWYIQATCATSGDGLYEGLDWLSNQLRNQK
# No constants are given. Whether binding was seen depends on the method and setting. Binding seen in cells or lysates may run through a third protein. Some binding calls cover weakened binding; strength is not graded here. For some assays here: Sequences can lack the tags named with a protein.
# T1: HA-HURP 725E (UniProt Q15398)
# T1 sequence: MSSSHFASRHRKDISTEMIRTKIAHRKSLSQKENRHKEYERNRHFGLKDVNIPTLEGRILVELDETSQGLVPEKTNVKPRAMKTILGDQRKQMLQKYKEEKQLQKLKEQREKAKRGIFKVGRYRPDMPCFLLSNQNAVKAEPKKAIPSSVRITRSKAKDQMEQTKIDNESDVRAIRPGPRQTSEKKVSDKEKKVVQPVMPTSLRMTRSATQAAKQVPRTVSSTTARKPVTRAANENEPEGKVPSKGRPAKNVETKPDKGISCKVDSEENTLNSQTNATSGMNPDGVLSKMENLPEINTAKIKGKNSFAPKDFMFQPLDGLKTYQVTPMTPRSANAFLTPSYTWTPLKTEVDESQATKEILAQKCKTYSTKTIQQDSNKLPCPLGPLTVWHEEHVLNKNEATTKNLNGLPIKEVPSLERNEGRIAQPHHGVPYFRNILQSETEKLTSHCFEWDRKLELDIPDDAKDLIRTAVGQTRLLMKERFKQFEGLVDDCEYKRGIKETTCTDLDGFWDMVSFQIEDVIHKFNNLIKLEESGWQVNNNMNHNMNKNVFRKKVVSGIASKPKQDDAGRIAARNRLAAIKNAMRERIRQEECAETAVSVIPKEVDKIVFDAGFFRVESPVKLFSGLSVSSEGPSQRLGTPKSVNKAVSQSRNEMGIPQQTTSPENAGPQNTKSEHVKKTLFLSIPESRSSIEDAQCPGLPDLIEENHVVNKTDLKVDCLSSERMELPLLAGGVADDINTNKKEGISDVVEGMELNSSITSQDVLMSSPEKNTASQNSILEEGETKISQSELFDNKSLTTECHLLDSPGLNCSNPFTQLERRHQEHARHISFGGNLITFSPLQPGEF
# T2: HA-HURP 725A (UniProt Q15398)
# T2 sequence: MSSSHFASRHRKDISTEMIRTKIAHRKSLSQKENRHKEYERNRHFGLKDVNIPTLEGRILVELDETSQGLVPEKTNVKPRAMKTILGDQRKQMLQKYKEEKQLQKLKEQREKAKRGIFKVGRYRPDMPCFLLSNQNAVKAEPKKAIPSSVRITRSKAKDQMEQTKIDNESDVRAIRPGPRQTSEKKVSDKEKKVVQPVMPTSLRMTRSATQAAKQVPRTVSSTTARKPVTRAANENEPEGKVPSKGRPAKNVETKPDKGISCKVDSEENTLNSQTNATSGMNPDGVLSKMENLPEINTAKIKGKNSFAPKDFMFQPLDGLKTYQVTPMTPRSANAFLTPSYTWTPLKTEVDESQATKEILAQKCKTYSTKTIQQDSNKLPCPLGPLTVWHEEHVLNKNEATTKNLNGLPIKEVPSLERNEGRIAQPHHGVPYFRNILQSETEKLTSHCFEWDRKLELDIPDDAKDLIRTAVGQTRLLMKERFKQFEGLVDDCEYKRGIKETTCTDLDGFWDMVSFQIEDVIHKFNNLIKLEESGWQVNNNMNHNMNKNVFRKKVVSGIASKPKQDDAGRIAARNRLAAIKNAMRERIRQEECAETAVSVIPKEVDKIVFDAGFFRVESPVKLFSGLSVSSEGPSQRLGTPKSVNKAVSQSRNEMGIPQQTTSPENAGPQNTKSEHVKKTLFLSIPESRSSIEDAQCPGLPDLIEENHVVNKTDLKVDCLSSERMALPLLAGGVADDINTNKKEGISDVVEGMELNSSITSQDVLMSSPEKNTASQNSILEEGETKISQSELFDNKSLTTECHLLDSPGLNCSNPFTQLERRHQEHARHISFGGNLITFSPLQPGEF
# T3: HA tagged HURP 1–300 (UniProt Q15398)
# T3 sequence: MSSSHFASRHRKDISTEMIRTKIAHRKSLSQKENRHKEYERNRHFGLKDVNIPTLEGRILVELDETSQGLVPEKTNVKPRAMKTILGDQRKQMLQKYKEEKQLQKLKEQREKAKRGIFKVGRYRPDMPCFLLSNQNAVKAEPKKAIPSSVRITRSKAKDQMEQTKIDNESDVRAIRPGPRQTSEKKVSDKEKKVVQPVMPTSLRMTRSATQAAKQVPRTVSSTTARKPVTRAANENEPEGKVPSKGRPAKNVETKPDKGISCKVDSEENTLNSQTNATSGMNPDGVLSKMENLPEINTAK
# T4: HURP p725 (human (endogenous in HeLa)) (UniProt Q15398)
# T4 sequence (chain, phosphoserine at 725): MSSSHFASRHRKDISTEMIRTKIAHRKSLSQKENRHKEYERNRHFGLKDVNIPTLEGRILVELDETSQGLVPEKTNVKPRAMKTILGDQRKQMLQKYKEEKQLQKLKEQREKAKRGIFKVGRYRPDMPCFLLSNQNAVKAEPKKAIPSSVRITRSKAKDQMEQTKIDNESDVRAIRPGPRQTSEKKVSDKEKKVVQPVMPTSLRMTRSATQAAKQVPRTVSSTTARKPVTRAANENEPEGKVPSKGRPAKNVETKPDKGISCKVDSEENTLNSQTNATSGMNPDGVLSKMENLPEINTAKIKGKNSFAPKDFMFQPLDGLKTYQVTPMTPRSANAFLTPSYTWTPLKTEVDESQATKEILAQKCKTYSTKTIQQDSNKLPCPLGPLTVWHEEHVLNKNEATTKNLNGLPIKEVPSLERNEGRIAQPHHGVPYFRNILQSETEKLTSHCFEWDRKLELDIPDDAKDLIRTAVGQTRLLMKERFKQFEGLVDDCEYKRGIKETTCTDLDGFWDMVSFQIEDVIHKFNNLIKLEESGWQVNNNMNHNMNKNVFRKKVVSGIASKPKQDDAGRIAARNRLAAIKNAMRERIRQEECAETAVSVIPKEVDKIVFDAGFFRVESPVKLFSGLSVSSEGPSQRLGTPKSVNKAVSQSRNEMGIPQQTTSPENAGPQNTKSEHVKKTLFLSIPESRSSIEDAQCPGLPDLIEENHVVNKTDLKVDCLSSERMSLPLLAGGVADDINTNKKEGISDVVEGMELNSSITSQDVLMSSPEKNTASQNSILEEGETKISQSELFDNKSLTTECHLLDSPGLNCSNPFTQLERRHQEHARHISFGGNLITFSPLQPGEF
# Columns and labels:
# HA-HURP 725E = biological target: T1, HA-HURP 725E; assay: co-IP; 293T cells transfected with GFP-TRIP11 and versions of HA-HURP; precipitating antibody not stated (Fig. 5A)
# HA-HURP 725A = biological target: T2, HA-HURP 725A; assay: as above
# HA tagged HURP 1–300 = biological target: T3, HA tagged HURP 1–300; assay: co-IP; 293 cells transfected with GFP-TRIP11 and HA tagged HURP FL, 1-300 or 300-846; immunoprecipitation with antibodies against HA (Fig. 5E)
# [1] = biological target: T4, HURP p725 (human (endogenous in HeLa)); assay: co-IP; HA-tagged ARF1 WT or T31N with HURP p725; cells and precipitating antibody not stated (Fig. 7E)
# [2] = biological target: PRMT5 (human (endogenous in HeLa)) (UniProt O14744); assay: co-IP; HeLa cell extract, immunoprecipitation with antibodies against PRMT5, Western blots for PRMT5, HURP, Aurora-A and Ajuba (Fig. 1A)
# [3] = biological target: PRMT5 (human (endogenous in HeLa)) (UniProt O14744); assay: co-IP; HeLa cells harboring HA-HURP, with or without Myc-Ajuba, or with shLuc or shAjuba; immunoprecipitation with antibodies against PRMT5, Western blots (Fig. 1B)
binding [1],binding [3],Molecule,other results
,,GFP-TRIP11 (from UniProt Q15643 1-1979),binding (HA-HURP 725E): binds; binding (HA-HURP 725A): no binding; binding (HA tagged HURP 1–300): binds
no binding,,HA-ARF1 WT (from UniProt P84077 1-181),
no binding,,HA-ARF1 T31N (from UniProt P84077 1-181),
,binds,"Aurora-A (enzyme, UniProt O14965 1-403) MDRSKENCISGPVKATAPVGGPKRVLVTQQFPCQNPLPVNSGQAQRVLCPSNSSQRIPLQAQKLVSSHKPVQNQKQKQLQATSVPHPVSRPLNNTQKSKQPLPSAPENNPEEELASKQKNEESKKRQWALEDFEIGRPLGKGKFGNVYLAREKQSKFILALKVLFKAQLEKAGVEHQLRREVEIQSHLRHPNILRLYGYFHDATRVYLILEYAPLGTVYRELQKLSKFDEQRTATYITELANALSYCHSKRVIHRDIKPENLLLGSAGELKIADFGWSVHAPSSRRTTLCGTLDYLPPEMIEGRMHDEKVDLWSLGVLCYEFLVGKPPFEANTYQETYKRISRVEFTFPDFVTEGARDLISRLLKHNPSQRPMLREVLEHPWITANSSKPSNCQNKESASKQS",binding [2]: binds
,binds,"HA-HURP (protein, UniProt Q15398 1-846) MSSSHFASRHRKDISTEMIRTKIAHRKSLSQKENRHKEYERNRHFGLKDVNIPTLEGRILVELDETSQGLVPEKTNVKPRAMKTILGDQRKQMLQKYKEEKQLQKLKEQREKAKRGIFKVGRYRPDMPCFLLSNQNAVKAEPKKAIPSSVRITRSKAKDQMEQTKIDNESDVRAIRPGPRQTSEKKVSDKEKKVVQPVMPTSLRMTRSATQAAKQVPRTVSSTTARKPVTRAANENEPEGKVPSKGRPAKNVETKPDKGISCKVDSEENTLNSQTNATSGMNPDGVLSKMENLPEINTAKIKGKNSFAPKDFMFQPLDGLKTYQVTPMTPRSANAFLTPSYTWTPLKTEVDESQATKEILAQKCKTYSTKTIQQDSNKLPCPLGPLTVWHEEHVLNKNEATTKNLNGLPIKEVPSLERNEGRIAQPHHGVPYFRNILQSETEKLTSHCFEWDRKLELDIPDDAKDLIRTAVGQTRLLMKERFKQFEGLVDDCEYKRGIKETTCTDLDGFWDMVSFQIEDVIHKFNNLIKLEESGWQVNNNMNHNMNKNVFRKKVVSGIASKPKQDDAGRIAARNRLAAIKNAMRERIRQEECAETAVSVIPKEVDKIVFDAGFFRVESPVKLFSGLSVSSEGPSQRLGTPKSVNKAVSQSRNEMGIPQQTTSPENAGPQNTKSEHVKKTLFLSIPESRSSIEDAQCPGLPDLIEENHVVNKTDLKVDCLSSERMSLPLLAGGVADDINTNKKEGISDVVEGMELNSSITSQDVLMSSPEKNTASQNSILEEGETKISQSELFDNKSLTTECHLLDSPGLNCSNPFTQLERRHQEHARHISFGGNLITFSPLQPGEF",
